Assay results published in article PMC4336329 (PLoS ONE, 2015).
Hit rate of the full screen: of about 310,000 compounds, about 2,200 (0.71%) showed an effect of 50% or more. The effect is printed as a negative number. The list shows a part of the results.

target: human ether-à-go-go-related gene (hERG) potassium channel (human, UniProt Q12809); test: primary screen, population patch clamp on CHO cells stably expressing hERG
Sequence (Q12809 whole entry, looked up): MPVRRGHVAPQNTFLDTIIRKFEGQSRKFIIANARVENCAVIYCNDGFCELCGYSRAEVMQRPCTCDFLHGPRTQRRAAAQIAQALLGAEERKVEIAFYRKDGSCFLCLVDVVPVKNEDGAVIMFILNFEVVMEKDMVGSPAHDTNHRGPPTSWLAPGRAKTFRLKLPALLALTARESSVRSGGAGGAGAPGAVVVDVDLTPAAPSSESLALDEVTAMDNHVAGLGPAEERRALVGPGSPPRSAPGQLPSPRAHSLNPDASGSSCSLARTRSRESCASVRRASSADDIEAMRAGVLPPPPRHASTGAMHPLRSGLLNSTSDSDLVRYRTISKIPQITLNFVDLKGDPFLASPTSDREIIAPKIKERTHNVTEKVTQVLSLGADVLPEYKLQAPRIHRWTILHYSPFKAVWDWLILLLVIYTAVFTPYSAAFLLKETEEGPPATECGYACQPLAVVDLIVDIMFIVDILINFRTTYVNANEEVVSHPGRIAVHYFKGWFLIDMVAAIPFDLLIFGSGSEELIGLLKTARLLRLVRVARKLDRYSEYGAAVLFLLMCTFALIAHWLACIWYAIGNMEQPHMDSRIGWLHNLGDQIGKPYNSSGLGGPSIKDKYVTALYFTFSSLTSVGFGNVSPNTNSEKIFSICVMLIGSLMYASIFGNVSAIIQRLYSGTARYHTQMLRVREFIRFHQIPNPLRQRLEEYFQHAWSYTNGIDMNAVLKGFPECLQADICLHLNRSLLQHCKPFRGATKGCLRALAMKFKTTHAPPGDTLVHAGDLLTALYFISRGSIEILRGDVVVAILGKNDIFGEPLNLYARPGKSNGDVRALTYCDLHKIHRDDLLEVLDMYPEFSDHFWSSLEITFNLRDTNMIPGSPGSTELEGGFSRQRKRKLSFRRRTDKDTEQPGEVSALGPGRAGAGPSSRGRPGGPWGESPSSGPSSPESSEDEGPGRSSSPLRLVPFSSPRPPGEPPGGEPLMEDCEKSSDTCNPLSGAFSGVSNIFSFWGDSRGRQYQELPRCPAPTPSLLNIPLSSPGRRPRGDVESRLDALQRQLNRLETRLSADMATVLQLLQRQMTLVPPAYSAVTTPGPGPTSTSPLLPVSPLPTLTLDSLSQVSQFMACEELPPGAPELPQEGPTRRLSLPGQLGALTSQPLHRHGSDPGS

Going from `COCCSc1ccccc1C(=O)N1CCCC1` to `CC(Oc1cccc(Cl)c1)C(=O)Nc1ccccc1C(=O)N1CCCCC1` (stereo not shown), the “hERG current change (%, negative = inhibition) at 1uM” value falls from 12.8% to 7.7%.

Going from `COc1ccc(Cl)cc1NC(=O)CN(C)C(=O)c1cc2ccccc2cc1OC` to `CCCC(=O)NC(c1ccc(OC)c(OC)c1)c1c(O)ccc2ccccc12` (stereo not shown), the “hERG current change (%, negative = inhibition) at 1uM” value falls from 17.8% to 4.84%.

Compared with `CC(C)N(C(=O)Cn1c(-c2ccccc2Cl)nc2ccccc21)c1ccccc1`, `CC(C)C(OC(=O)c1ccccc1)c1nccc2ccccc12` (stereo not shown) is higher in “hERG current change (%, negative = inhibition) at 1uM” value: 4.69% for the first, 6.89% for the second.

Going from `O=C(/C=C/c1ccc(Cl)cc1)NC1CCS(=O)(=O)C1` (stereo not shown) to `O=C(/C=C/c1ccccc1)N1CCOCC1`, the “hERG current change (%, negative = inhibition) at 1uM” value rises from -6.04% to 11.3%.

Compared with `Cc1sc2ncnc(Sc3nnc4sc5ccccc5n34)c2c1C`, `COc1ccc(C2=Nn3c(nnc3-c3cc(C)[nH]n3)SC2)cc1` is lower in “hERG current change (%, negative = inhibition) at 1uM” value: 8.6% for the first, -35.1% for the second.

First: CN1C(C(=O)NCCc2cccs2)CC2Cn3c(nc4ccccc43)C21 (stereo not shown)
Second: Cc1cccc(-c2noc(CCC(=O)NCCc3ccccc3)n2)c1
The “hERG current change (%, negative = inhibition) at 1uM” value of the first is lower: -1.47% for the first, 12.6% for the second.

Compared with `CCOC(=O)C1=C(C)NC(SCC(=O)Nc2cc(C)on2)=C(C#N)C1c1cccs1` (stereo not shown), `Cc1cc(NC(=O)CSc2nnnn2Cc2ccccc2)no1` is lower in “hERG current change (%, negative = inhibition) at 1uM” value: 17.9% for the first, 2.51% for the second.

First: COc1nc(-c2ccccc2)ccc1-c1noc(-c2ccccc2)n1
Second: COC(=O)c1ccc(-c2nc(-c3cccs3)no2)cc1
The “hERG current change (%, negative = inhibition) at 1uM” value of the first is lower: 8.33% for the first, 14.8% for the second.

Going from `CCOC(=O)C1(CCCc2ccccc2)CCN(C(=O)CCN2CCCCC2=O)CC1` to `CCN1C(=O)NC(=O)/C(=C\c2cn(CC(=O)N3CCCCC3)c3ccccc23)C1=O`, the “hERG current change (%, negative = inhibition) at 1uM” value rises from -26.3% to 10.6%.

Going from `COc1ccc(C(=O)COC(=O)c2ccccc2O)c(OC)c1` to `COc1ccc2oc(=O)c(C(=O)NCc3ccccc3)cc2c1`, the “hERG current change (%, negative = inhibition) at 1uM” value falls from 11.6% to 2.58%.

First: CCOC(=O)C1CCN(CCC(=O)Nc2ccc(Br)c(C)c2)CC1
Second: Cc1cc(NC(=O)CCS(=O)(=O)c2ccc3c(c2)NC(=O)C(C)S3)ccc1Br (stereo not shown)
The “hERG current change (%, negative = inhibition) at 1uM” value of the first is lower: -33.7% for the first, 15.7% for the second.

Going from `Cc1ccc(-c2noc(CCC(=O)NC3CC3)n2)cc1` to `CCOc1ccc(-c2n[nH]c(=S)o2)cc1`, the “hERG current change (%, negative = inhibition) at 1uM” value rises from 1.5% to 14.6%.

First: CN=c1sc2ccccc2n1CC(O)COc1ccccc1 (stereo not shown)
Second: COc1ccccc1NC(=O)NCc1ccccc1F
The “hERG current change (%, negative = inhibition) at 1uM” value of the first is lower: -2.36% for the first, 17.4% for the second.

First: COc1cc(/C=C2/C(=O)NN(c3ccc(Cl)c(Cl)c3)C2=O)cc([N+](=O)[O-])c1O
Second: COc1ccc(-n2c(=O)[nH]cc(C(=O)Nc3ccc(NC(C)=O)cc3)c2=O)cc1
The “hERG current change (%, negative = inhibition) at 1uM” value of the first is lower: 6.69% for the first, 10.2% for the second.

Going from `CCCc1cc(=O)[nH]c(SCC(=O)c2ccc3c(c2)NC(=O)CO3)n1` to `CCOc1ccc2nc(SCc3ccc(C(=O)OC)o3)[nH]c2c1`, the “hERG current change (%, negative = inhibition) at 1uM” value rises from -6.11% to 6.62%.

Going from `COc1ccccc1C1(CC(=O)Nc2nccs2)CCOC(C(C)C)C1` (stereo not shown) to `COCCN1Cc2cccc(C(=O)NCc3ccccc3OC)c2C1=O`, the “hERG current change (%, negative = inhibition) at 1uM” value falls from 16.5% to 3.2%.

First: COc1cc(CN2CCN(Cc3ccc4cc(F)ccc4n3)CC2CCO)cc(OC)c1 (stereo not shown)
Second: COCCOC(=O)C(C#N)c1nc2ccccc2nc1N1CCN(Cc2ccccc2)CC1 (stereo not shown)
The “hERG current change (%, negative = inhibition) at 1uM” value of the first is higher: -21.6% for the first, -32.7% for the second.

First: CC(/C=N/NC(=O)c1cc(-c2ccncc2)nc2ccccc12)=C\c1ccco1
Second: COc1ccc(NC(=O)CSc2nncc3ccccc23)cc1
The “hERG current change (%, negative = inhibition) at 1uM” value of the first is higher: 0.477% for the first, -5.64% for the second.

First: C#CCOC(=O)CCCNc1ccc([N+](=O)[O-])cc1[N+](=O)[O-]
Second: C=CCNC(=O)/C(C#N)=C/c1ccccc1[N+](=O)[O-]
The “hERG current change (%, negative = inhibition) at 1uM” value of the first is higher: 8.85% for the first, 3.79% for the second.

First: CN(C(=O)c1ccc(NC(=O)Cc2ccc(NC(=O)C3CCN(C(=O)C4CCC4)CC3)cc2)cc1)C1CC1
Second: CCCn1cc(CN2CCC(Oc3ccc(C(=O)N4CCCC4)cc3)CC2)c(C)n1
The “hERG current change (%, negative = inhibition) at 1uM” value of the first is higher: 17% for the first, 14.3% for the second.

First: Cn1cnnc1SCc1ccc(C#N)cc1Cl
Second: CCOc1cc(C#N)c(NC(=O)CSc2nnnn2-c2ccc(OC)cc2)cc1OCC
The “hERG current change (%, negative = inhibition) at 1uM” value of the first is higher: -8.3% for the first, -14.6% for the second.

Going from `C/C(=N\Nc1ccc(C)c(Cl)c1)c1cccnc1` to `COc1ccc(O)c(/C=N/NC(=S)NCCc2ccccc2)c1`, the “hERG current change (%, negative = inhibition) at 1uM” value falls from 25% to 15.7%.

First: CN(C)c1cc(N/N=C\c2ccccc2)nc(N(C)C)n1
Second: CN(C)CCCN(Cc1cc2cc3c(cc2[nH]c1=O)OCO3)C(=S)Nc1ccccc1
The “hERG current change (%, negative = inhibition) at 1uM” value of the first is higher: 12.8% for the first, 7.61% for the second.

Going from `CC1(C)C2CC=C(/C=N/NC(=O)c3ccc(O)cc3)C1C2` (stereo not shown) to `O=C1C=C(c2ccc(C(=O)O)cc2)C[C@@H](c2ccc(Cl)cc2)C1`, the “hERG current change (%, negative = inhibition) at 1uM” value rises from -4.85% to 9.26%.

First: Cc1cc(C)cc(NC(=O)Nc2ccc(S(=O)(=O)Nc3cc(C)on3)cc2)c1
Second: CC(=O)Nc1ccc(S(=O)(=O)Nc2nnc(C(C)C)s2)cc1
The “hERG current change (%, negative = inhibition) at 1uM” value of the first is lower: 4.23% for the first, 15% for the second.

Going from `Cc1ccc(C2C(C#N)=C(N)Oc3c2c(=O)n(C)c(=O)n3C)cc1` (stereo not shown) to `O=C1c2ccccc2C(=O)N1Cc1ccc2c(c1)OCO2`, the “hERG current change (%, negative = inhibition) at 1uM” value rises from 6.36% to 12.2%.

First: CCOC(=O)C(NC(=O)Nc1ccc(F)cc1F)(Oc1ccc(F)cc1)C(F)(F)F (stereo not shown)
Second: COc1ccc(NC(=O)/C(C#N)=C/c2ccc(OCc3ccccc3F)cc2)cc1
The “hERG current change (%, negative = inhibition) at 1uM” value of the first is lower: 3.91% for the first, 8.4% for the second.

First: CCCc1nnc(NC(=O)CC(=O)Nc2ccccc2C(=O)O)s1
Second: Cc1nn2c(=O)cc(COC(=O)c3ccc(S(=O)(=O)N4CCCCC4)cc3)nc2s1
The “hERG current change (%, negative = inhibition) at 1uM” value of the first is higher: 15.3% for the first, 9.39% for the second.

Going from `CC(=O)Nc1ccc(OCCOc2ccc([N+](=O)[O-])cc2)cc1` to `Cc1ccc(C(=O)NCCCN2CCOCC2)cc1Cl`, the “hERG current change (%, negative = inhibition) at 1uM” value rises from 12.4% to 15.6%.
